Among all 340,000 compounds or so, about 6,900 (2%) were called active. Rule as the data show it: active = inhibition above about 30%; inactive = below that, where a call was filed. The list shows a part of the results, in another mix than the full data. Where no call is shown, the source filed none.
What follows are molecules tested against D(2) dopamine receptor (Homo sapiens) (UniProt P14416) (assay: HTS Assay for Allosteric Antagonists of the Human D2 Dopamine Receptor: Primary Screen for Antagonists). Conditions: HEK293 TREx D2 cells, calcium flux, dopamine EC80; at 10 µM; stronger effect = higher value.
Sequence of UniProt P14416 (P14416 whole entry, looked up): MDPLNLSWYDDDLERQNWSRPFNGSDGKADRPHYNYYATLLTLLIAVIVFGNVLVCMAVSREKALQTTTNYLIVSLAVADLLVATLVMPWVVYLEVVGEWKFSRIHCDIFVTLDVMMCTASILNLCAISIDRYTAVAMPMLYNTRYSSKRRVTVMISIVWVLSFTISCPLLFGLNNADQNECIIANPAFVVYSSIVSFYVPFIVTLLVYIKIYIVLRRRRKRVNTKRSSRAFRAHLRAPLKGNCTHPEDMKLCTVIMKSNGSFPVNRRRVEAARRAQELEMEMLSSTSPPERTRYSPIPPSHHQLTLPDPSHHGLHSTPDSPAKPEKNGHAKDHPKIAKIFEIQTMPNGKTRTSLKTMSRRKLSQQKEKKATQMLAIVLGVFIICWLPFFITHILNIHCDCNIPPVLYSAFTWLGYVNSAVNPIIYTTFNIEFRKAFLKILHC
Method in brief: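 Cells plated overnight at 30 C with tetracycline; no-wash calcium dye, 30–90 min RT; 10 s baseline; compound pinned; 180 s read; EC80 dopamine added; another 180 s read.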
For COc1ccc(-c2cc(C(F)(F)F)n3nc(-c4ccc(Cl)cc4)cc3n2)cc1OC, the inhibition was 3.43%.
Nc1nc(CN2CCN(c3ccc(F)cc3)CC2)nc(N2CCCc3ccccc32)n1 was tested, and the inhibition was active: 54.4%.
COCCNC(=O)CSc1nc2cc3c(cc2c(=O)n1CCCCCC(=O)NCCc1ccc(OC)c(OC)c1)OCO3 gave an inhibition of 13.8%.
Cc1ccc(N2CCN(Cc3nnc(-c4ccc5c(c4)OCO5)o3)CC2)c(C)c1 showed an inhibition of 6.8%.
In the case of COc1ccccc1N1CCN(C(=O)c2ccc3c(c2)N(Cc2ccccc2)C(=O)c2ccccc2S3(=O)=O)CC1, the inhibition is reported as -11.9%.
Molecule Cc1cc(C)cc(NC(=O)CSCc2cc(=O)c3cc(Cl)ccc3[nH]2)c1 has an inhibition of -19.3%.
Cc1c(-c2nc(-c3ccc4c(c3)[nH]c(=O)n4C)no2)cccc1[N+](=O)[O-] gave an inhibition of 13.8%.
Cc1ccc(-c2c[n+](Cc3ccc(Cl)c(Cl)c3)c3n2CCC3)cc1 was tested, and the inhibition was active: 30.4%.
For O=C(c1cnc(N2CCOCC2)c2ccccc12)N1CCN(c2ccc(F)cc2)CC1, the inhibition was -3.91%.
In the case of CC1(C)CC(=O)c2cc(-c3nc(-c4ccc(Br)cc4)cs3)c(=O)n(-c3ccccc3)c2C1, the inhibition is reported as 7.58%.
With Cc1cccc(-c2noc(CN(C(C)C)S(=O)(=O)c3ccc(Br)cc3)n2)c1 the inhibition was 5.46%.
Cc1ccc2nc(CSc3nnc(NC(=O)COc4ccccc4F)s3)cc(=O)n2c1 gave an inhibition of -7.25%.
For Nc1c(C(=O)c2ccc3c(c2)OCO3)sc(Nc2ccccc2F)c1S(=O)(=O)c1ccccc1, the inhibition was -13.1%.
In the case of COc1ccc(C2CC(=O)c3cc(-c4nc(-c5cccc([N+](=O)[O-])c5)cs4)c(=O)n(-c4cc(C)cc(C)c4)c3C2)cc1 (centres undefined), the inhibition is reported as 10.5%.
Molecule CCOC(=O)CSc1nc2sc3c(c2c(=O)n1CC)CCCC3 has an inhibition of -6.82%.
CCCC(=O)Nc1ccc2nn(-c3ccc(CC)cc3)nc2c1 showed an inhibition of -15.8%.
With O=C(CCCn1c(=O)c2sccc2n(Cc2c(F)cccc2Cl)c1=O)NCc1ccccc1 the inhibition was 6.73%.
Work on Cn1c(=O)c2c(-c3ccccc3Br)n(C(C)(C)C)cc2n(C)c1=O yielded an inhibition of 6.96%.
CCCCOC(=O)c1ccc(NC(=O)c2ccc3c(c2)CCN3S(=O)(=O)c2ccccc2)cc1 gave an inhibition of -1.06%.
Work on O=C(Nc1ccc(F)cc1F)c1ccc(-c2ccccc2)s1 yielded an inhibition of 2.45%.
CCOC(=O)c1c(C)[nH]c(C)c1S(=O)(=O)N1CCCC(C(=O)N2CCN(c3ccc(Cl)cc3)CC2)C1 (centres undefined) showed an inhibition of 14.6%.
O=C(Nc1ccccc1C(=O)OCc1cc(=O)n2c3c(sc2n1)CCCC3)c1ccc(Cl)cc1 was tested, and the inhibition was 9.48%.
For Cc1nnc(N2CCN(c3ccccc3)CC2)c2c1nnn2Cc1ccc(F)cc1, the inhibition was 17.5%.
CCOC(=O)c1ccc(N2CCN(c3cccc(Cl)c3)CC2)c(NC(=O)Nc2ccc(Cl)cc2)c1 gave an inhibition of 8.09%.
O=C1Nc2c(c(=O)[nH]c(=O)n2-c2ccc(Cl)cc2)C1(NS(=O)(=O)c1ccccc1)C(F)(F)F (centres undefined) gave an inhibition of 0.756%.
Cc1ccc(C)c(NC(=O)CCn2cnnn2)c1 was tested, and the inhibition was 1.41%.
With CCOc1ccccc1CNS(=O)(=O)c1cnc(N)nc1 the inhibition was 5.22%.
Work on COc1ccccc1Cn1c(CNS(=O)(=O)c2ccc(Cl)s2)nc2cccnc21 yielded an inhibition of -11.9%.
For COCCCNC(=O)c1cc2c(=O)n3cccc(C)c3nc2n(C(C)C)c1=N, the inhibition was active: 34.5%.
CC(=O)c1cccc(NC(=O)Cn2cnc3c2c(=O)n(C)c(=O)n3C)c1 showed an inhibition of 18%.
COc1ccc(-n2c(CCC(=O)O)ccc2-c2ccccc2)cc1 gave an inhibition of -11.8%.
Molecule CCOC(=O)c1cccc(NC(=O)Cc2ccc(NC(=O)N3CCCCc4ccccc43)cc2)c1 has an inhibition of -3.54%.
Work on CCC(=O)N1CCc2cc(Br)cc(S(=O)(=O)N3CCCC(C(=O)Nc4ccc(CC)cc4)C3)c21 (centres undefined) yielded an inhibition of -0.124%.
COc1ccc(/C=C(\C#N)c2nc(-c3ccc(Cl)c(Cl)c3)cs2)cc1OC showed an inhibition of 5.68%.
Work on COc1cc(C(=O)NCC(c2ccc(N(C)C)cc2)N2CCCC2)cc(OC)c1OC (centres undefined) yielded an inhibition of -20.8%.
For CCOc1ccc(NC(=O)CSc2nc3nc(C)c(Cc4ccccc4)c(C)n3n2)cc1, the inhibition was -9.6%.
CCc1ccc(NC(=O)CSc2nc(=O)n(Cc3cccnc3)c3c2CCC3)cc1 was tested, and the inhibition was 11.7%.
Cc1ccc(-c2nc3ccc(Br)cn3c2Nc2ccc3c(c2)OCO3)o1 gave an inhibition of -2.29%.
Molecule O=C(COc1ccccc1F)NC1CC(=O)N(c2ccc3c(c2)OCCO3)C1 (centres undefined) has an inhibition of -7.69%.
CCc1ccccc1NC(=O)CSc1nc2c(oc3ccccc32)c(=O)n1-c1ccccc1 showed an inhibition of 4.01%.
For O=C(NCc1ccccc1Cl)C(=O)NCC(c1ccco1)S(=O)(=O)c1cccs1 (centres undefined), the inhibition was -10.9%.
In the case of COc1ccccc1CNC(=O)C1CCN(c2nn3c(=O)cc(C)nc3s2)CC1, the inhibition is reported as -6.53%.
For CCC1CCCCN1CCCNC(=O)c1cc2c(Cl)nc3ccc(C)cc3c2s1 (centres undefined), the inhibition was -1.08%.
In the case of COc1ccc(Cn2c(=O)c3oc4ccccc4c3n(CC(=O)Nc3cc(C)cc(C)c3)c2=O)cc1, the inhibition is reported as -8.88%.
For Cc1c2cnn(CC(=O)NCCc3ccccc3)c(=O)c2c(C)n1Cc1ccccc1Cl, the inhibition was 7.14%.
CCC1CCCCN1CCCNC(=O)c1ccc2c(c1)N(Cc1cccc(C)c1)C(=O)c1ccccc1S2(=O)=O (centres undefined) showed an inhibition of -10.1%.
Molecule COc1cccc(-n2cc(C(=O)NCCc3cccc(C)c3)c3ccccc3c2=O)c1 has an inhibition of 13.7%.
Cc1ccc(C)c(N2CCN(C(=O)C(C)n3nc(C)c4sc5ccccc5c4c3=O)CC2)c1 (centres undefined) showed an inhibition of -15.1%.
For COC(=O)c1ccc(NC(=O)N2CCc3c([nH]c4ccccc34)C2c2ccc(C)cc2)cc1 (centres undefined), the inhibition was 5.88%.
For O=C(Nn1cnc2ccccc2c1=O)c1ccccc1, the inhibition was active: 31.2%.
C/C(=N\NC(=O)C12CCC(C)(C(=O)O1)C2(C)C)c1ccccc1O (centres undefined) was tested, and the inhibition was active: 82.5%.
With O=C(NCC(c1cccnc1)N1CCOCC1)C(=O)Nc1cccc(Cl)c1 (centres undefined) the inhibition was 20.7%.
CSc1ccc(CCNC(=O)c2sc3ncccc3c2-n2cccc2)cc1 was tested, and the inhibition was -20.1%.
COc1cccc(C(=O)Nc2ccc3nc(SCc4ccc(C)cc4)sc3c2)c1 showed an inhibition of -2.17%.
For Cn1nc(-c2ccccc2)c(-c2ccccc2)c(C(=O)Nc2ccc(S(N)(=O)=O)cc2)c1=O, the inhibition was -5.39%.
Cc1cccc(-n2c(SCC(=O)Nc3ccccc3Cl)nc3n[nH]c(C)c3c2=N)c1 showed an inhibition of 18.2%.
CCOc1ccc(Nc2c(S(=O)(=O)c3ccc(C)cc3)cnc3ccc(OC)cc23)cc1 was tested, and the inhibition was -5.39%.
COC(=O)c1ccc(NC(=O)CC2C(=O)N(c3ccccc3)C(=O)N2C2CCCC2)cc1 (centres undefined) gave an inhibition of 16.6%.
Work on COc1cc2nc(NCc3ccccc3Cl)n3nc(-c4cccnc4)nc3c2cc1OC yielded an inhibition of 3.59%.

From PubChem BioAssay AID485344 (National Center for Advancing Translational Sciences (NCATS), 2010)
Also: 0% is about no effect.
